68 molecules from PubChem BioAssay AID1240 (Sanford-Burnham Center for Chemical Genomics, 2008) can be followed below.

Out of some 50,000 compounds screened, about 800 (1.6%) showed an effect of 50% or more. The list shows a part of the results.

In this assay the target is Bcl-2-like protein 10 (Homo sapiens) (UniProt Q9HD36). Put plainly: TR3 peptide-Bcl-B binding displacers, biochemical primary FP assay, phenotype converters (AID 1240).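 Further: 0% = Bcl-B with tracer peptide and DMSO and 100% = tracer peptide lacking Bcl-B.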 To be noted: GST-Bcl-B / FITC-TR3 peptide fluorescence polarization; stronger effect = higher value; compound at 3.75 mg/L.
UniProt Q9HD36, sequence (Q9HD36 whole entry, looked up): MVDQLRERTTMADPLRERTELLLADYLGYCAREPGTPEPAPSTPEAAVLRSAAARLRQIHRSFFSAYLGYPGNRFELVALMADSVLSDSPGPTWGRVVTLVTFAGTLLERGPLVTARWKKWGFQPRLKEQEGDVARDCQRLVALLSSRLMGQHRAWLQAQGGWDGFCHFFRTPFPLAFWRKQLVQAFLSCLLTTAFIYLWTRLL
In the case of `CC(=O)Nc1ccc(N/C=C/C(=O)c2ccccc2)cc1`, the displacement is -2%. The same measure for `CC(C)(C)c1ccc(S(=O)(=O)N/N=C/c2cc(Br)ccc2O)cc1`: 5.5%; for `CCOC(=O)c1c(C)[nH]c(=S)c(C#N)c1-c1ccccc1`: 0.9%; for `CCC(=O)c1ccc(N2CCN(S(=O)(=O)c3ccccc3)CC2)c(F)c1`: 2.4%. Next, `CCN(CC)CCn1c2ccccc2n2cc(-c3ccc(OC)cc3)nc12`: -10.4%; `N/C(=N\OC(=O)c1ccc(Cl)cc1Cl)c1ccc(Cl)cc1`: -3.3%.

Take `CC(C)Oc1ccccc1-c1cc(C(=O)O)c2ccccc2n1`: the displacement was 4.9%. The same measure for `Cc1ccccc1C(=O)NNC(=O)c1cccc(Br)c1`: -12%. For `O=c1oc(-c2cccc(F)c2)nc2cc(Cc3ccc4c(=O)oc(-c5cccc(F)c5)nc4c3)ccc12`, the displacement came out at 12.4%.

`CC(=O)Nc1ccc(N2C(=O)C3C4C=CC(CC4)C3C2=O)cc1` (stereo not drawn): the displacement was -5.5%.

For the molecule `O=C1NC(=S)N(c2cccc(Br)c2)C(=O)/C1=C/c1ccc(-c2ccc(C(=O)O)cc2)o1`, the displacement was -91.9%. The same measure for `COc1ccc(C(=O)N=Nc2c(O)n(CN(C)C)c3ccc(Br)cc23)cc1`: -10.9%; for `CCOc1ccc(NC(=O)CC2SC(=Nc3ccccc3)N(c3ccccc3)C2=O)cc1` (stereo not drawn): 0.7%. As to `CCOC(=O)c1c(N)sc2c1CCc1ccccc1-2`, the displacement turned out to be 4.3%.

With `Cc1ccc(S(=O)(=O)Oc2ccc(/C=C3\SC(=S)NC3=O)cc2)cc1`, the displacement was -32.2%. The same measure for `CC(C)C12CC3CC(CC(C(=O)NN)(C3)C1)C2`: 8.7%; for `CC(C)c1ccccc1NC1=NS(=O)(=O)c2cc([N+](=O)[O-])ccc21`: 8.4%. Next, `O=C(Nc1cccc(O)c1)c1cccc(NC(=O)c2ccccc2-c2ccccc2C(=O)O)c1`: -7.1%.

Regarding `COc1ccc2c(Cl)c(C(=O)N3CCN(CCN4C(=O)c5cccc6cccc(c56)C4=O)CC3)sc2c1`, the displacement came out at 5.4%. The same measure for `C=CCn1c(SCC(=O)N2CCCCC2)nc2sc3c(c2c1=O)CCC3`: 2.5%; for `COC(=O)c1c(NC(=O)c2cccc([N+](=O)[O-])c2)sc2c1C(C(=O)OC)CC2` (stereo not drawn): 0.7%. The same measure for `CS(=O)(=O)N1CCN(Cc2cccc(F)c2)CC1`: 0%; for `CCC(=O)Nc1ccc(NC(=O)c2ccc(OC)c(Br)c2)cc1`: 0.9%.

Consider `COC(=O)C1=C(C)NC2=C(C(=O)CCC2)C1c1ccc(OC(C)=O)cc1` (stereo not drawn), for which the displacement stood at 8.4%. Next, `COC(=O)c1c(C)oc2ccc(OC(=O)N3CCOCC3)cc12`: 9.4%. The same measure for `CCc1ccc(/C=C2/SC(=S)N(CC(=O)Nc3nc4ccccc4s3)C2=O)cc1`: -11.8%. The same measure for `O=C(/C=C/c1ccccc1)c1ccc([N+](=O)[O-])o1`: 1.6%; for `CC(Oc1ccccc1)C(=O)NCc1ccccn1` (stereo not drawn): 6.8%.

With `O=[N+]([O-])c1ccc(C2Nc3c(cccc3[N+](=O)[O-])C3C=CCC32)cc1` (stereo not drawn), the displacement was determined as 7.1%. With `O=C(N/N=C/c1ccco1)C1CC(=O)N(c2ccccc2)C1` (stereo not drawn), the displacement was -12.2%.

In the case of `COC(=O)c1ccc(NC(=O)C(C)Oc2ccc(Cl)cc2C)cc1` (stereo not drawn), the displacement was -2.3%. Regarding `O=C1Nc2ccc(S(=O)(=O)Nc3ccc(O)c(-c4c(O)ccc5ccccc45)c3)c3cccc1c23`, the displacement came to 2%. Take `Cc1cc(C)n(-c2ccc(N3CCOCC3)nn2)n1`: the displacement was -4.5%.

Regarding `CC1(C(=O)O)CC(=O)N=C2C=CC=CN21` (stereo not drawn), the displacement came to 4.9%. Next, `COc1ccc(C2CC(=O)C3=C(C2)Nc2ccccc2NC3c2cccc(Cl)c2)cc1` (stereo not drawn): 2.3%.

`COc1ccc(N(CC(=O)N/N=C/c2ccco2)S(=O)(=O)c2ccccc2)cc1`: the displacement is 20.8%.

Consider `O=C(CNC(=O)c1ccc(Cl)cc1Cl)c1ccccc1`, for which the displacement was -7.4%. Next, `CC1(C)Oc2c(C(C)(C)C)cc([N+](=O)[O-])c(C(C)(C)C)c2O1`: 1%. Next, `COc1ccc(N(C(C)C(=O)O)S(C)(=O)=O)cc1` (stereo not drawn): -3.1%. As to `O=C(O)c1cccc(NC(=O)c2ccccc2F)c1`, the displacement was -2.3%. With `COc1ccccc1C(=O)N1CCN(Cc2cc(OC)c(OC)c(OC)c2)CC1`, the displacement was -5.8%. Consider `O=C(COc1ccc(Br)cc1)Nc1cccc(C(F)(F)F)c1`, for which the displacement was found to be 3.7%. The same measure for `N#CCN(CC#N)C(=O)CCCOc1ccc(Cl)cc1Cl`: -8.4%; for `O=C(Nc1nccs1)c1cc(-c2cccc(Br)c2)nc2ccccc12`: 2.1%; for `Cc1ccc(S(=O)(=O)NCc2ccccn2)cc1[N+](=O)[O-]`: -8.4%. Next, `O=C1NN(c2ccccc2)C(=O)/C1=C/c1cccc(O)c1`: -1.7%. Next, `Cc1ccc(OCC(=O)N2CCN(c3ccc([N+](=O)[O-])cc3)CC2)cc1`: 11.9%. As for `COCC(COCCCN=C1NS(=O)(=O)c2ccccc21)OC` (stereo not drawn), the displacement came out at 6.1%. Next, `COc1ccc(NC(=O)c2cc3n(n2)C(C(F)(F)F)CC(c2ccc(F)cc2)N3)cc1OC` (stereo not drawn): 5.3%; `Cc1cc(SCc2ccccc2)n2ncnc2n1`: -0.1%. Next, `COc1ccc(/C(O)=C2/C(=O)C(=O)N(CCCCCC(=O)O)C2c2ccc([N+](=O)[O-])cc2)cc1` (stereo not drawn): -12%; `CC(C)(C)c1ccc(C(=O)Nc2ccc(NC(=O)c3ccc4c(c3)OCCO4)cc2)cc1`: 1.6%. Next, `CN1CCN(c2ccc(C(=O)c3cccc(F)c3)cc2)CC1`: -2.6%; `O=S(=O)(NCc1ccccc1Cl)c1ccc2ccccc2c1`: -6.7%; `Cc1cc(C)c2oc(-c3ccc(NC(=O)c4cccnc4)cc3O)nc2c1`: 7.2%.

With `COc1ccc(-c2cc(=O)n3[nH]c(-c4cccc(F)c4)cc3n2)cc1`, the displacement is 8.5%.

Turning to `FC(F)(F)c1ccc(CN2CCN(Cc3ccco3)CC2)cc1`, the displacement is -36.1%.

Consider `CN(C)c1ccc(NC(=O)c2ccccc2Cl)cc1`, for which the displacement came out at 6.5%. As for `O=S(=O)(c1ccc(-c2ccccc2)cc1)N1CCSC1c1ccccc1` (stereo not drawn), the displacement stood at 4.8%. The same measure for `CSc1ccc(/C=C(/C#N)C(=O)Nc2cccc(Br)c2)cc1`: 80.3%; for `Cc1ccc(C2=C/C(=C/c3cc4c(cc3Br)OCO4)C(=O)O2)cc1`: -1.3%; for `CCOC(=O)N1CCN(S(=O)(=O)c2ccc(C)cc2)C1`: 10.6%.

Consider `O=C(/C=C/c1ccc([N+](=O)[O-])cc1)NCCSc1ccccn1`, for which the displacement was -5%. Next, `CCc1cc(=O)oc2cc(OCc3ccc(C)cc3)ccc12`: 0%; `CS(=O)(=O)N(CC(=O)Nc1ccccc1Cl)c1cc(Cl)cc(Cl)c1`: -7.7%; `CCN1C(=O)/C(=C\c2ccc(OCCOc3cccc(OC)c3)cc2)SC1=S`: 10.9%. Next, `O=S(=O)(CCc1nc2ccccc2[nH]1)c1ccc(Cl)cc1`: -3.8%; `CCCOc1ccc(-c2cc(C(=O)NCCCN3CCOCC3)c3ccccc3n2)cc1`: 1%.
